# Measured values: PubChem BioAssay AID2147 (National Center for Advancing Translational Sciences (NCATS), 2009)
# “And” between values parts separate entries of the source, which are not always exact repeats. Identical values can stand only once. About 3,600 (1.6%) of roughly 230,000 compounds were called active. Inconclusive results, whose numbers are uncertain, are shown with a selection of clear calls. The call rests on the fitted dose curve; in most records, active means well fitted inhibition curve with a large enough effect (not every such curve was filed as active); inconclusive means small, poorly fitted or top-dose-only effect, or another doubt; inactive means no such curve, though single readings can be large or run the other way. Where the call is inconclusive, the potency comes from a doubtful curve fit. Some compounds were tested as several samples or in several runs, with calls that do not always agree.
# Target: Lysine-specific demethylase 4E (Homo sapiens) (UniProt B2RXH2)
# UniProt B2RXH2, sequence (B2RXH2 whole entry, looked up, the tested form may be a part): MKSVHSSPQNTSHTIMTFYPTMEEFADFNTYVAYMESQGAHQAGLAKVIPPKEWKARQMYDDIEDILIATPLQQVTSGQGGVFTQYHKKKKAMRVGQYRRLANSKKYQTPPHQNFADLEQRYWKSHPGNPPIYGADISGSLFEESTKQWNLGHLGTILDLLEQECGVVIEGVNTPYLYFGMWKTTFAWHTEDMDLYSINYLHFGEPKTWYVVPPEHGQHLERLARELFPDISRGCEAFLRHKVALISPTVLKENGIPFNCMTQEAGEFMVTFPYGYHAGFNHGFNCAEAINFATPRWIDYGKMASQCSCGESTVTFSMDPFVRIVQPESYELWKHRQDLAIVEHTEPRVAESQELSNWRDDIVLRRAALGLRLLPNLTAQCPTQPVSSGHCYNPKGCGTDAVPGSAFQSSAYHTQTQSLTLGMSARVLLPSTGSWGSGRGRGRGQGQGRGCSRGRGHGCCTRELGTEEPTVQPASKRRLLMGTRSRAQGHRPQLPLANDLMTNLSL
# Assay: qHTS Assay for Inhibitors of Human Jumonji Domain Containing 2E (JMJD2E)
# Settings: JMJD2E catalytic domain, FDH-coupled NADH fluorescence (FDH is formaldehyde dehydrogenase); series mostly up to 57.1 µM
# Further: nearly all actives have a fitted effect of over 50% in size.
# Potency means the concentration at half of the fitted maximal effect; tags describe the fitted curve by direction and shape.
row,SMILES,Potency
1,COc1ccc(C)cc1NC(=O)CN1C(=O)c2cccc3cccc1c23,"inconclusive: 31.6 µM [inhibitor, partial curve]"
2,COC(=O)c1[nH]c2ccc(Cl)cc2c1NC(=O)Oc1ccccc1,"inconclusive: 28.2 µM [inhibitor, partial curve]"
3,Cc1cc(C)c2c(n1)sc1c(O)cc(=O)[nH]c12,"inconclusive: 39.8 µM [inhibitor, single point]"
4,Cc1[nH]c2ccccc2c1C(=O)COC(=O)c1c(-c2ccccc2Cl)noc1C,"inconclusive: 28.2 µM [inhibitor, single point]"
5,CCOC(=O)C1=C(O)C(=O)N(c2ccc(S(N)(=O)=O)cc2)C1c1ccc(OC)cc1 (stereo not given),"inconclusive: 22.4 µM [inhibitor, partial curve]"
6,CCOC(=O)c1c2ccc(OCC(=O)N/N=C/c3ccc(Cl)cc3)cc2n2ccccc12,inactive
7,CC1CCCC(C)N1c1nnc(NC(=O)Cn2c(=O)oc3ccccc32)s1 (stereo not given),inactive
8,COC(=O)c1cc(=O)n(Cc2ccc3c(c2)OCO3)c(=Nc2ccc(F)cc2)s1,inactive
9,O=C(N/N=C/c1c(O)ccc2ccccc12)c1ccc[n+](CCO)c1,active: 31.6 µM
10,COc1cc(/C=N/n2nnnc2N)ccc1O,"inconclusive: 39.8 µM [inhibitor, single point]"
11,c1cc2ccc3ccc(CN4CCOCC4)c4ccc(c1)c2c34,"inconclusive: 35.5 µM [inhibitor, single point]"
12,COc1cccc(/C=N/NC(=S)NC2CC3CC2C2C=CCC32)c1O (stereo not given),inactive
13,Cc1onc(-c2ccccc2)c1C(=O)Nc1ccc2c(C)cc(=O)oc2c1,"inconclusive: 28.2 µM [inhibitor, partial curve]"
14,COC(=O)c1sc(-c2ccc(Cl)cc2)cc1NC(=O)c1ccccc1C(=O)O,"inconclusive: 28.2 µM [inhibitor, single point]"
15,COc1ccc(N2C(=O)CC(Sc3n[nH]c(-c4cccc(C)c4)n3)C2=O)cc1 (stereo not given),"inconclusive: 35.5 µM [inhibitor, single point]"
16,CCOC(=O)c1ccc2[nH]c(C)cc(=O)c2c1,"inconclusive: 28.2 µM [inhibitor, partial curve]"
17,Cc1cccc2cc(COC(=O)c3ccccn3)c(=O)[nH]c12,"inconclusive: 39.8 µM [inhibitor, single point]"
18,CCOC(=O)C(=NC(C)CC)NNc1ccc(Br)cc1 (stereo not given),"inconclusive: 28.2 µM [inhibitor, single point]"
19,O=c1c2ccccc2n(CC(O)CN2CCCCC2)c2ccccc12 (stereo not given),"inconclusive: 17.8 µM [inhibitor, partial curve]"
20,CCOC(=O)N1CCC(c2cc(=O)n3[nH]ccc3n2)CC1,"inconclusive: 28.2 µM [inhibitor, partial curve]"
21,C=CCn1c(-c2c[nH]c3ccccc23)n[nH]c1=S,"inconclusive: 20 µM [inhibitor, single point]"
22,Cc1ccc(-n2c(Cc3cccn3C)nnc2SCC(=O)N2CCc3ccccc32)cc1,inactive
23,CSc1ccc(-c2nc(CSCC(=O)N3CCOCC3)c(C)o2)cc1,"inconclusive: 31.6 µM [inhibitor, single point]"
24,O=C(C1=C(O)C(=O)N(c2nccs2)C1c1ccccc1)c1cc2ccccc2o1 (stereo not given),"inconclusive: 35.5 µM [inhibitor, single point]"

row,SMILES,Potency
1,Cc1nc2ccc(-c3nc4ccccc4o3)cc2[nH]1,"inconclusive: 31.6 µM [inhibitor, partial curve]"
2,O=C(CN1CCN(c2nc(-c3ccc(F)cc3)cs2)CC1)Nc1ccc2c(c1)OCO2,inactive
3,Cc1cc2nc3c(=O)[nH]c(=O)nc-3n(CC(O)C(O)C(O)CO)c2cc1C (stereo not given),"inconclusive: 7.08 µM [inhibitor, partial curve] and inconclusive: 11.2 µM [inhibitor, partial curve] and inconclusive: 12.6 µM [inhibitor, partial curve]"
4,CC(C(=O)Nc1ncccn1)(c1ccccc1)c1ccccc1,"inconclusive: 39.8 µM [inhibitor, single point]"
5,COc1cc(OC)cc(-c2nnc(SCC(=O)N(Cc3ccccc3)C(C)(C)C)o2)c1,"inconclusive: 39.8 µM [inhibitor, single point]"
6,CCOC(=S)N/C(=N\S(=O)(=O)c1ccc(C)cc1)c1ccccc1,inactive
7,CCCCn1c(CNC(=O)C(C)(C)C)nc2ccccc21,inactive
8,O=C(CCCn1c(SCc2cc(=O)n3cc(Cl)ccc3n2)nc2ccccc2c1=O)NCC1CCCO1 (stereo not given),"inconclusive: 8.91 µM [inhibitor, single point]"
9,COc1ccnc(N2CCN(c3ccc(Cl)cc3)CC2)c1C#N,"inconclusive: 35.5 µM [inhibitor, single point]"
10,Cn1nc(C(=O)Nc2ccc3c(c2)OCCO3)cc1C(=O)O,"inconclusive: 0.0501 µM [inhibitor, full curve, poor fit]"
11,O=C(Nc1cccc(C(F)(F)F)c1)c1ccc2nc(N3C(=O)CCC3=O)sc2c1,"inconclusive: 39.8 µM [inhibitor, single point]"
12,CC(=O)Cc1nsc(NC(=O)c2ccc(-c3cccc(Cl)c3)o2)n1,"inconclusive: 35.5 µM [inhibitor, single point]"
13,CCc1ccc(N/C(SC)=C(/C#N)C(N)=O)cc1,inactive
14,O=C(N/N=C/c1ccc2cccnc2c1)c1ccco1,inactive
15,O=C(NC(CCl)c1ccccc1)c1ccc(Cl)cc1 (stereo not given),"inconclusive: 39.8 µM [inhibitor, single point]"
16,O=C(NNC(=O)c1csc(-c2cnccc2C(F)(F)F)n1)c1ccc(C(F)(F)F)cc1,"inconclusive: 39.8 µM [inhibitor, single point]"
17,COc1ccc(CCNC(=O)c2cc3c(=O)n(C)c4ccccc4c3n2C)cc1OC,"inconclusive: 39.8 µM [inhibitor, single point]"
18,CCOC(=O)c1ccc(N2C(=O)C3C(C2=O)C(C(=O)c2ccc(Cl)cc2)N2CCCC32)cc1 (stereo not given),"inconclusive: 25.1 µM [inhibitor, single point]"
19,CC(C(Sc1ccccc1N)c1ccccc1)[N+](=O)[O-] (stereo not given),active: 11.2 µM
20,N#Cc1c(Nc2ccccc2)c(/C=N/NCCO)c[nH]c1=O,"inconclusive: 17.8 µM [inhibitor, single point]"
21,O=C(CN1CCCc2ccccc21)NCCc1ccc(F)cc1,"inconclusive: 28.2 µM [inhibitor, single point]"
22,CN(C)C1C(=O)C(C(N)=O)=C(O)[C@@]2(O)C(=O)C3=C(O)c4c(O)ccc(Cl)c4C(O)[C@H]3C[C@@H]12 (stereo not given in full),"inconclusive: 25.1 µM [inhibitor, single point]"
23,COC(=O)[C@@H]1C[C@@]2(O)[C@H](O)[C@H](O)[C@H](O)C[C@H]2N1Cc1ccc(-c2ccccc2)cc1,active: 8.91 µM
24,Cc1ccc2ccccc2[n+]1CCCS(=O)(=O)[O-],"inconclusive: 25.1 µM [inhibitor, partial curve]"

row,SMILES,Potency
1,COc1ccc(/C=N/NC(=O)c2cc(=O)[nH]c3ccccc23)cc1OC,"inconclusive: 35.5 µM [inhibitor, single point]"
2,O=C1C(=O)N(CNc2ccccn2)c2ccccc21,inactive
3,COc1ccc(-c2nc(NC(=O)CSc3nnc4ccccn34)ns2)cc1,"inconclusive: 28.2 µM [inhibitor, partial curve]"
4,Cc1cccc(CNc2ncnc3ccc(-c4ccc(C(=O)N(C)C)cc4)cc23)c1,"inconclusive: 15.8 µM [inhibitor, partial curve]"
5,Cn1c(SCc2ccccc2F)nnc1-c1ccccn1,inactive
6,CC(=O)c1cc2c(C)cc(=O)oc2cc1O,"inconclusive: 35.5 µM [inhibitor, single point]"
7,Cn1nnc2ccccc2c1=O,inactive
8,FC(F)(F)c1cc(-c2cccs2)nc2ncnn12,"inconclusive: 22.4 µM [inhibitor, partial curve]"
9,Nc1nc2c(s1)COc1ccccc1-2,"inconclusive: 39.8 µM [inhibitor, single point]"
10,CC(C)CC(NS(=O)(=O)c1cc(C(=O)O)ccc1Cl)C(=O)O (stereo not given),"inconclusive: 28.2 µM [inhibitor, single point]"
11,CC[N+](CC)(CC=C(C)C)CC(=O)OC,inactive
12,Cc1ccc(N/N=C/c2ccc(N3CCOCC3)cc2)cc1C,"inconclusive: 39.8 µM [inhibitor, single point]"
13,COCC(C)NC(=O)c1cc2cc(OC)ccc2[nH]1 (stereo not given),"inconclusive: 28.2 µM [inhibitor, partial curve]"
14,COc1cc2c(cc1OC)-c1cc(NC3CCCC3)nc(=O)n1CC2,"inconclusive: 28.2 µM [inhibitor, partial curve]"
15,COc1ccc(-c2csc(NCc3ccco3)n2)cc1,inactive
16,CCOC(=O)c1cn(CC)c2ccc(S(=O)(=O)N3CC(C)CC(C)C3)cc2c1=O (stereo not given),inactive
17,CCOC(=O)Cn1nnnc1C(CC)N(Cc1cc2ccc(C)cc2[nH]c1=O)C1CCCC1 (stereo not given),"inconclusive: 39.8 µM [inhibitor, single point]"
18,O=C(O)C(O)C(O)C(O)C(O)C(=O)O (stereo not given),inactive
19,CC1=NN(C(=O)c2ccco2)C(O)(c2ccccc2)C1 (stereo not given),"inconclusive: 25.1 µM [inhibitor, single point]"
20,CCOC(=O)c1c(NC(=S)NC)sc2c1CCCC2,"inconclusive: 22.4 µM [inhibitor, single point]"
21,Clc1ccccc1-c1nccc(-n2ccnc2)n1,inactive
22,O=S(=O)(Cc1nc2ccccc2s1)c1ccccc1,inactive
